Data from the supplement of paper PMC3334620.
Over roughly 33,000 sequences, “E-score (-0.5 to 0.5)” has its median near -0.013; the highest 2% begin near 0.3. The list shows a part of the results.

The sequences below were run against T1, Msn1 (UniProt P22148) (assay: PBM E-score (8-mer binding enrichment) (E-score (-0.5 to 0.5)); higher = stronger / more preferred TF binding; most listed sequences are background and not binding sites). Conditions: protein concentration: 200 nM; construct: GST-full length.
T1 sequence: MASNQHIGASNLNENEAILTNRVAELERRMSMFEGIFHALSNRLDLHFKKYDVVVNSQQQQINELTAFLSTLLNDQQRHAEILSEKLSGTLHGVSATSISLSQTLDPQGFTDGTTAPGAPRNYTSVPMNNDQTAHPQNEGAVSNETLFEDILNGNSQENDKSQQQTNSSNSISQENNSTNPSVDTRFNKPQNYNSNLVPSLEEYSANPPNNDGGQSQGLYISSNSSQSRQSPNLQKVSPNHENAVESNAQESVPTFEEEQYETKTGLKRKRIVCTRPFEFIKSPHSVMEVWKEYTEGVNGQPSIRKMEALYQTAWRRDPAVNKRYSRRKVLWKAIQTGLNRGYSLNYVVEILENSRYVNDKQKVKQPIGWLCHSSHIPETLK
Method in brief: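 The E-score, a modified Wilcoxon-Mann-Whitney statistic, was computed by the Universal PBM Analysis Suite for every ungapped eight-base word pooled with its reverse complement. Scans behind it were normalised with masliner after bound GST-tagged yeast transcription factors were detected with fluorescent anti-GST. The proteins, at about 100-200 nM, had been applied to universal all-10-mer Agilent arrays made double-stranded by primer extension.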

Sequence	PBM E-score
GGGGCCTA	-0.42
CTATCAAG	0.0621
GTCTTCAC	0.0473
AGCAAATC	0.0188
GGAGAGGA	-0.174
TAAATGTA	0.208
GAGGGTTA	-0.242
AGGGTCAC	-0.112
CCAATCCG	0.0273
CCCCGCAC	-0.103
AATGTAAC	-0.00877
AAATCTCA	0.126
CAGAATAC	0.0673
TGACCGCA	-0.0491
ATCTAGAC	0.0965
CTCGAAGA	-0.141
GACTTCCA	-0.0659
CATCTCAA	0.0838
GTCTGAGA	0.0529
CGAGTGAA	-0.071
CGTCTGCA	0.0663
GAAATGTA	0.245
CGCTCAGC	-0.0937
AAACGCCT	-0.0244
CAGATACG	0.00031

Sequence	PBM E-score
AGATATGA	0.152
GATCGTGA	-0.0123
CCACGTCA	-0.0688
AGATGTTA	-0.065
TGAATTCA	0.124
GGACATCA	0.396
AAAAAGTT	0.188
CCTACCTA	-0.129
AAAGCCGA	-0.101
CCGTGGGA	-0.0721
CAGAGCCC	-0.136
ACCCAGCC	-0.287
CATGATCC	-0.0855
GCGCCGAA	0.118
GGCGGTCA	-0.164
TAGTTAAA	0.143
GAGGGTCC	-0.226
AACTCATG	0.0668
ACGGCACG	0.0941
CGTATGTA	0.148
TACTCACA	-0.188
AATTGCAG	0.011
TTGCCCAA	0.0514
GTCGAGAC	0.0308
CGTCGTAG	-0.00158

Sequence	PBM E-score
CGAGCGAA	-0.00032
CTGAACTA	-0.083
CCTTGACC	-0.045
GGCGAGAA	0.0249
AGTCCGTG	-0.0088
GCCGTGTA	0.0282
CGCCCATA	-0.064
TAGTCAGA	0.0398
ATTGATAC	0.17
CACATAAA	0.137
CAACACTC	-0.105
GGTGTGAC	-0.0466
CATTCTCG	0.0388
CCATGGGC	-0.0729
GAGTCAAA	-0.165
AGCTAAGA	-0.103
ACTGTTGC	0.0443
GCCGACCC	-0.209
ACGTCATC	-0.0638
ATGGGCTC	-0.107
ACTCCGAT	-0.0147
CGATCTAG	-0.0912
AGACCTTG	-0.194
AAACCTCC	-0.213
AGTTCTGC	-0.111

Sequence	PBM E-score
ACTAATAA	0.244
CGCGTACG	0.106
AGACTTCG	-0.0572
ACCCCCAA	-0.17
ACGCCTAA	0.00941
CGTGAGTC	-0.0898
GCTACGGA	-0.0385
CAACACGC	-0.194
CGCCCATC	-0.295
AACAAAGA	0.139
AAACAGCA	0.105
CTGTGCGA	0.00465
CTGGAGTA	-0.136
AAAGCGCG	0.043
AAGTCTGC	0.0784
TGTTTCAA	0.194
ATTTCCGA	0.227
CTAGACCC	-0.164
GCAATATA	-0.0426
AAGCACAC	-0.151
CTATCGGA	0.194
ATCCCGGC	0.19
CAGGCTGG	-0.241
CTAATCCC	-0.114
CGACACGC	0.0622

Sequence	PBM E-score
ATGATGGA	-0.0021
ATCGATCG	0.115
AATAGCTC	-0.0965
ATCAGCGA	-0.127
CTTATGGA	-0.0483
GGTCATAC	-0.0778
GCCCCTCA	-0.308
AACGTGAA	0.0519
CCAATAAC	0.153
CTTACTGC	-0.143
GTTATCAA	-0.0295
ACCGCGAA	0.039
GCGACGTA	0.00383
CATACCCC	-0.0714
ACCGGCTG	-0.269
CAAGCTTC	0.057
ACGGAACA	0.0245
AGTCTGTA	-0.064
ATAGACCC	-0.0646
CAGTCGAC	0.108
GATGAAGA	-0.174
GGCTCCAA	-0.153
AGAGTGGC	-0.116
ATCGCATC	-0.118
GAGCCCGC	-0.245

Sequence	PBM E-score
CCAAATCA	-0.0883
CACGGAGC	0.0778
GGACGTAA	0.21
GGGAACTA	-0.0808
ACCCATGA	-0.158
GCATACCA	-0.106
ACCCCCGA	-0.144
TGGATCAA	-0.0815
ACGGATGC	0.0505
CTCTGACC	-0.19
CTTCTGTC	0.192
CGCATTTC	0.135
ACATGTAC	0.263
CGGGAAAG	-0.038
ACGGTCAT	0.0534
GTAGGTAA	-0.1
TAACCACA	-0.0961
ATAACGCA	0.0182
CCGGAAAG	-0.113
CATCGCTA	0.159
TGTAAACA	0.0354
GCTCGTCA	-0.0861
GGCTAACC	-0.296
CTAATGTA	0.143
GAAGAAAC	0.0197

Sequence	PBM E-score
ACAGCTAC	-0.0979
AAACTAAA	0.205
CGTGTAAG	0.00677
TATGACCA	0.0481
GCGTGCCA	-0.266
ATACTATC	0.0853
GATTCCAA	-0.0287
CCCAGGAC	0.0729
GAAGTGTA	-0.103
CCTCCGTC	-0.206
AATACTAC	0.119
ACGCTATC	-0.203
AGTAGACG	0.0483
GTAACGGA	0.0735
AAGAGCTT	-0.166
GTAAGGAC	0.268
ACAGGACG	0.0345
GTTTAAAC	0.214
AACTGGAG	-0.2
ATAGAAAC	0.0232
CCGGTACC	-0.139
AACGTATC	-0.214
AGGTCTGC	-0.227
GTGCGGTA	-0.0985
CCAGCAGG	-0.306

Sequence	PBM E-score
AGCTCAAT	0.0483
AGTAGAGC	-0.166
CTTACTCA	-0.123
CTGCGCCA	-0.0239
AACTTCGC	-0.0366
AGGTTGAG	-0.0914
TGTCCGAA	0.452
ATAATGAC	-0.033
AACCTCTA	-0.0622
CTGTTTTC	-0.0669
ACAGGAGC	0.0295
ACCCCTCA	-0.305
GGAAAGTA	0.00177
CCCGTCAG	-0.179
AACTGTGA	0.0858
AGATACAT	0.241
TCACGGGA	0.0822
TGCGCCCA	-0.0583
TGACAAAA	0.402
ACACGACT	0.111
GGACAACA	0.337
ACCTTCGA	-0.0843
CATCGCAA	-0.159
CAGCTTAA	-0.0697
GAACCTGA	-0.0302

Sequence	PBM E-score
ATAAAACC	0.204
CTACGCGA	0.00041
AACTTCAA	0.0618
ATAAGAGA	0.21
GTGAAATA	0.0459
ATACATAG	0.114
CATGACAG	0.13
AACCAATC	0.0274
AAGCGAGC	-0.0286
TGGACCCA	-0.00247
GGACACCC	-0.0113
AAATGAGT	0.0295
ACGAAAGT	0.055
GCAAGCGC	-0.146
AAAGATGC	-0.254
ATACCGAT	0.0201
TAAGAAGA	0.0965
AATTATAA	0.225
TACCTTGA	0.0341
CGACTCCC	-0.0565
ACCATACT	0.0758
GCGAACCA	-0.0367
CCACGCAG	-0.102
ATGAAAGG	-0.179
AAGTGCGC	-0.108

Sequence	PBM E-score
GTATAAAC	0.163
GAGGCGCA	-0.173
CATAAGAA	0.156
GGAGCCTA	-0.0816
AGTATGGG	0.0148
AAATAGGC	0.0174
ATGTCAAG	0.217
CTAATAGC	-0.255
CCCAAATA	0.0428
TAAATGGA	0.0732
GAAGACCC	-0.293
ACCGTTGC	-0.12
CGAGCTAC	-0.106
AGGTTGCG	-0.132
TACGGTCA	-0.0772
ATGCGATC	0.0267
GATCATAA	0.0946
AAACATAC	-0.0227
AGTCCTAC	0.165
CATTAATC	0.077
GGAGGTCA	-0.197
AGGACCAT	0.0759
TCGCGGCA	-0.0647
CACGACTG	-0.132
CCTACGGC	-0.23

Sequence	PBM E-score
CCCGGTCG	-0.185
ATGGCTCC	-0.144
AAACGTTC	-0.00364
AGCTGAGA	-0.0294
AGCTAGAA	0.0088
CAGCAACG	0.0974
GGACGACC	-0.163
TAAAGTTA	0.154
GAGGCTCC	-0.164
CCGCGACC	-0.0476
AAATTGCC	0.0743
AGCCACGC	-0.143
AAGTTCCA	-0.0544
ATAGTTTG	0.274
CAAGGGCC	-0.185
CCCGCAGA	-0.068
AATCCTAG	-0.0237
GCCTTGAA	-0.278
ATGCGAGG	-0.134
GCGGTTTA	0.0245
ATGCGATA	0.0216
AAAACCCC	-0.155
TCTACACA	-0.0126
CAAATGAA	0.0666
TCCCCCCA	-0.341

Sequence	PBM E-score
ACTCCGAA	0.00789
AAAAGGTA	0.0382
CATGTAAA	0.109
ACTATTAG	0.16
AATACCAT	0.172
GGAAGACA	0.251
TAGTCATA	0.0578
ATAAAGAA	0.143
AGGAGTGG	-0.233
CACTAGGC	-0.0968
CACCAAAA	0.0614
TAAGGGCA	0.0897
CAATCATA	0.0579
ACCAGGGC	-0.261
ATCGGTAG	0.117
ATTCAAGC	0.0438
AACACTGC	-0.00331
ACTACGGA	0.0284
TCTGGTCA	0.0592
TACCCGGA	0.21
CCGAGTCA	-0.0166
GATAAAAC	0.175
CCAATGGC	-0.208
AGTCAGCC	-0.209
CATGAATC	-0.0424

Sequence	PBM E-score
CCAGCATC	-0.148
AATCGTAA	-0.00853
GTGCTGTA	-0.0445
GAGACCGC	-0.217
CGCTTGTC	0.345
CTACCCCA	-0.137
AGCAGCGG	-0.0831
ACCGCTCT	-0.21
CTGATCTA	-0.0508
ACCAGTTG	-0.0585
AAATTCGT	0.256
AACTCTAT	0.0134
TCCCTGAA	0.011
CTAGTCTA	-0.0874
AATCTTTA	0.117
CCCGGTAA	0.00759
ACTACTAA	0.075
AAAAGCTC	0.0539
CGTGTAAA	-0.00711
CGCCACGC	-0.0875
CCTTGGTC	-0.194
CTATAGAG	-0.206
AACCAGGA	0.126
TAGCAAAA	0.124
CCTAGACC	-0.00875

Sequence	PBM E-score
CTACCATA	0.0846
GTGACCAC	-0.155
CCCCCCAA	-0.17
GAGGAACA	0.0319
CCCGTGGA	-0.152
CTGTGACC	-0.115
GCGCCTAC	-0.00952
CCGCCGTA	-0.0756
ACACGCAT	0.133
CACCAAAC	0.0872
ATTACTTG	0.114
ATGCGCTG	-0.0966
GATCCTTA	-0.107
GGGTGGGA	-0.0376
AGAAGGCG	-0.252
CTGGATCC	0.0578
GAACTCTC	-0.0211
AATACGGT	-0.0751
CTATACAC	-0.263
